Measurements from PubChem BioAssay AID1345083 (National Center for Advancing Translational Sciences (NCATS), 2018).
Out of some 94,000 compounds screened, about 6,200 (6.6%) were called active. Inconclusive results, whose numbers are uncertain, are shown with a selection of clear calls. The call rests on the fitted dose curve; in most records, active means well fitted inhibition curve with a large enough effect; inconclusive means small, poorly fitted or top-dose-only effect; inactive means flat fitted curve, though single readings scatter. Potencies beside an inconclusive call are fits to weak or partial responses and may not hold up.

test: Cytotoxic Profiling in HEK 293 Cell Line of Diverse Libraries Using Quantitative High-Throughput Screening; conditions: HEK 293 viability, ATP luminescence (CellTiter-Glo), 48-72 h; series mostly up to 115 µM; further: nearly all actives have a fitted effect of over 60% in size
Procedure, shortened: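 HEK 293 seeded at 250 cells/well receive compound via pintool. After 48 or 72 hr at 37 degree Celsius, 5% CO2 and 95% humidity, CellTiter-Glo is dispensed and luminescence read following 10 min at room temperature.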
Potency means the concentration at half of the fitted maximal effect; tags describe the fitted curve by direction and shape.

SMILES | Potency
COc1ccc(C2(C(=O)N3CCC4(CC3)CC(C(=O)N3CCOCC3)N(C)C4)CC2)cc1 (configuration not stated) | inactive
CCOC(=O)[C@@H]1CN(C(=O)OCC)[C@H]2c3cccc(C)c3O[C@@H]12 | inconclusive: 44.7 µM [inhibitor, partial curve]
COc1ccc(-c2noc(C(=O)NC(C)(C)C)c2[C@H](C)O)cc1 | inconclusive: 126 µM [inhibitor, single point]
CCN(Cc1ccccc1)C(=O)CCC[C@@H]1[C@H]2CCCN3CCC[C@@H](CN1Cc1cccnc1)[C@@H]23 | inconclusive: 44.7 µM [inhibitor, partial curve, poor fit]
COCCCNC(=O)N1Cc2ccccc2OC2(CCN(C(C)C)CC2)C1 | inconclusive: 39.8 µM [inhibitor, single point]
COc1ccc2[nH]c3c(c2c1)CCNC31CCN(Cc2ccc(C)o2)CC1 | inconclusive: 44.7 µM [inhibitor, partial curve, poor fit]
c1ccc2c(c1)CCCN2CCCNc1ncncn1 | inconclusive: 79.4 µM [inhibitor, partial curve, poor fit]
CCCCCC(=O)Nc1nc2c(s1)C[C@@H]1[C@](C)(CO)[C@H](O)CC[C@@]1(C)[C@@H]2CC(=O)NCc1ccccc1 | inconclusive: 50.1 µM [inhibitor, partial curve, poor fit]
COc1cccc(CNC(=O)c2cc(-c3ccc([S+](C)(=O)[O-])cc3)nc3c2cnn3C)c1 | inconclusive: 14.1 µM [inhibitor, full curve]
CNC(=O)c1cc(C)nc2onc(C3CCN(C(=O)c4ccccc4F)CC3)c12 | inactive
COc1ccc(NC(=O)N2CC(c3noc(-c4ccccc4)n3)C2)c(C)c1 | inconclusive: 44.7 µM [inhibitor, partial curve]
O=C(Nc1ccc(F)cc1)c1nc2sccn2c1-c1cccc(C(F)(F)F)c1 | active: 50.1 µM
Cc1cccc2c1O[C@H]1[C@H](CO)CN([S+](=O)([O-])c3cccs3)[C@@H]21 | inconclusive: 89.1 µM [inhibitor, single point]
Cn1c(C(=O)NC2CCN(Cc3ccccc3)CC2)cc2c1CCN(Cc1ccccc1)C2 | inconclusive: 56.2 µM [inhibitor, partial curve, poor fit]
O=C(c1ccc(N2CC3CC(C2)[C@H]2CCCC(=O)N2C3)nc1)N1CCc2ccccc2C1 (some centres not stated) | inconclusive: 100 µM [inhibitor, single point]
COc1cccc(CN2CCCCCCNC(=O)CC2c2ccccc2)c1 (configuration not stated) | inconclusive: 31.6 µM [inhibitor, partial curve, poor fit]
Cc1nn(-c2ccccc2)c2c1C(C)N(C1CCN(C(=O)c3ccc(Cl)cc3)CC1)C2=O (configuration not stated) | inconclusive: 79.4 µM [inhibitor, partial curve, poor fit]
Cn1nc(C(=O)Nc2ccc3c(c2)C(=O)N2CCC[C@H]2C(=O)N3)c2ccccc21 | inconclusive: 44.7 µM [inhibitor, partial curve, poor fit]
O=C(CC1CCCC1)N1CCC(Cc2nc(-c3ccc(F)cc3)no2)CC1 | inconclusive: 8.91 µM [inhibitor, full curve, poor fit]

SMILES | Potency
COc1ccc(CN2CCN(c3noc(C(C)C)n3)CC2CCO)cc1C (configuration not stated) | inconclusive: 89.1 µM [inhibitor, single point]
CCN1c2cc(C(=O)Nc3cc(OC)cc(OC)c3)ccc2C(=O)N2CCCCC21 (configuration not stated) | inconclusive: 89.1 µM [inhibitor, single point]
COCCNC(=O)[C@H]1C[C@H](Oc2ccccc2)CN1C(=O)CC(C)C | inconclusive: 100 µM [inhibitor, single point]
OC(COc1cccc(CN2CCC(c3ncon3)CC2)c1)CN1CCOCC1 (configuration not stated) | inactive
CN1CCCC12Cc1ccccc1CN(C(=O)C1CCCC1)C2 (configuration not stated) | inactive
CN(C(=O)CC(c1ccccc1)c1ccc(Cl)cc1)C1CCOCC1 (configuration not stated) | inconclusive: 56.2 µM [inhibitor, partial curve, poor fit]
C[C@@H]1C(=O)O[C@H]2[C@H]1CC[C@@]1(C)Cc3sc(Nc4cccnc4)nc3[C@@H](C)[C@H]21 | inactive
Cc1ccc(-c2cn3cc(C(=O)NCC(F)(F)F)nc3s2)cc1 | inconclusive: 44.7 µM [inhibitor, partial curve, poor fit]
Cc1noc(C)c1-c1cc2c(cc(-c3ccccc3)n2C)c(-c2cccnc2)n1 | inconclusive: 22.4 µM [inhibitor, full curve, poor fit]
CC(C)(O)CCc1cccc(C(=O)N2CC=C(c3ccc(F)cc3)CC2)c1 | inconclusive: 50.1 µM [inhibitor, partial curve, poor fit]
N#Cc1ccc(C(=O)N2CCC3(CC2)NC(=O)N(Cc2ccc(F)cc2)C3=O)cc1 | inconclusive: 39.8 µM [inhibitor, partial curve]
CC(C)CNC(=O)c1ccc2nc(-c3ccccn3)oc2c1 | inconclusive: 56.2 µM [inhibitor, partial curve, poor fit]
COCCN1CCCCCC(O)c2cc(C(=O)NC3CCC3)ccc21 (configuration not stated) | inconclusive: 22.4 µM [inhibitor, full curve]
CC(C)c1noc([C@@H]2Cc3nc[nH]c3CN2Cc2ccc(F)cc2)n1 | inconclusive: 112 µM [inhibitor, partial curve, poor fit]
Cc1ccc(CN2C[C@@H](NC(=O)c3cccnc3)C[C@H]2CO)s1 | inconclusive: 89.1 µM [inhibitor, single point]
Cc1cc(C)cc(C(=O)NCCn2ccn3nc(-c4ccc(F)cc4)cc3c2=O)c1 | inconclusive: 50.1 µM [inhibitor, partial curve, poor fit]
COCCN1CCN(C[C@@H]2C=C(C)[C@H](Cc3nnc(-c4ccc(N(C)C)cc4)o3)C[C@H]2C(C)C)CC1 | active: 31.6 µM
CCOC(=O)C1CCN(C(=O)c2cc3c(n2C)CCN(Cc2ccccc2)C3)CC1 | inconclusive: 89.1 µM [inhibitor, single point]
